Results reported in PubChem BioAssay AID2100 (National Center for Advancing Translational Sciences (NCATS), 2009).
Screen size: about 300,000 compounds; about 1,200 (0.4%) were called active. The shares of active, inactive and inconclusive entries below differ from those in the screen. The call rests on the fitted dose curve; in most records, active means well fitted inhibition curve with a large enough effect; inconclusive means small, poorly fitted or top-dose-only effect, or another doubt; inactive means no such curve, though single readings can be large or run the other way. Where the call is inconclusive, the potency comes from a doubtful curve fit.

These compounds were tested against Lysosomal alpha-glucosidase (Homo sapiens) (UniProt P10253) (assay: qHTS Assay for Inhibitors and Activators of Human alpha-Glucosidase Cleavage of Glycogen). Details: recombinant GAA, glycogen substrate, Amplex Red glucose oxidase fluorescence; series mostly up to 76.4 µM.
How it was run: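 Natural-substrate format: glycogen cleavage by 4 nM human enzyme, glucose read by Amplex Red coupling (Ex 573, Em 610 nm). Normalized to enzyme and no-enzyme controls.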
Potency means the concentration at half of the fitted maximal effect.

SMILES | Potency
CN1CCc2c(c3c(n2C)CCN(C)C3c2ccc(F)cc2)C1c1ccc(F)cc1 (stereo not drawn) | inconclusive: 19.8 µM [activator, partial curve]
CC(=O)/C(=N\Nc1ccc(C)cc1)N1CCOCC1 | active: 12.5 µM
O=C(CC1C(=O)NCCN1Cc1ccc(F)cc1)NCCN1CCCc2ccccc21 (stereo not drawn) | inconclusive: 5.01 µM [inhibitor, full curve]
CCCc1cc(-c2[nH]ncc2-c2ccc3c(c2)OCCCO3)c(O)cc1O | inconclusive: 35.5 µM [inhibitor, partial curve]
CC(C)=CCCC1(C)C=Cc2c(ccc3c2[nH]c2cc(O)c(C)cc23)O1 (stereo not drawn) | inconclusive: 39.8 µM [inhibitor, partial curve]
COc1cccc(NC2=C(NCCO)C(=O)c3ccccc3C2=O)c1 | inconclusive: 15.8 µM [inhibitor, partial curve]
COc1ccc(O/C(=N\S(=O)(=O)c2ccccc2)c2ccccc2)cc1 | inconclusive: 28.2 µM [inhibitor, partial curve]
COc1cc2c(cc1O)CCN(C(=O)c1ccco1)C2C (stereo not drawn) | inconclusive: 39.5 µM [inhibitor, single point]
Cn1c(C(=O)NCCN2CCOCC2)cc2c(=O)n(C)c3ccccc3c21 | inactive
Fc1cc2[nH]c(=S)[nH]c2c(Br)c1N1CCSCC1 | inconclusive: 14 µM [inhibitor, partial curve]
CCOc1cc(/C=N/Nc2nnc(C)n2N)ccc1OC(C)=O | inconclusive: 11.2 µM [inhibitor, single point]
CC(C)CC(=O)NNC(=S)Nc1ccc(S(N)(=O)=O)cc1 | inconclusive: 7.08 µM [inhibitor, full curve]
CCCCn1c(=O)c2oc3ccccc3c2n(Cc2cccc(C)c2)c1=O | inactive
Cc1c(Cl)cccc1NC(=O)c1cc2sccc2n1Cc1ccc(F)cc1 | inactive
O=C(CC1Nc2ccccc2NC1=O)Nc1cc(Cl)cc(Cl)c1 (stereo not drawn) | inconclusive: 44.7 µM [activator, single point]
COc1cc(-c2cn(S(=O)(=O)c3cccc4nsnc34)nc2N)cc(OC)c1OC | inconclusive: 31.6 µM [inhibitor, single point]
c1ccc2c(c1)NCC1CCCN21 (stereo not drawn) | inconclusive: 50.1 µM [inhibitor, single point]
O=C(NC(=S)Nc1cccc2c(O)cccc12)c1ccccc1[N+](=O)[O-] | active: 10 µM
CC(=O)Nc1ccc(S(=O)(=O)Nc2nc3ccccc3nc2Nc2ccc(N)cc2)cc1 | inconclusive: 28.2 µM [inhibitor, partial curve]
O=C(O)c1ccc(-c2ccc(/C=N/Nc3ccc([N+](=O)[O-])cc3)o2)cc1 | inconclusive: 11.2 µM [inhibitor, partial curve]
CCN(CC)S(=O)(=O)c1cccc(NC(=O)C2SC(=Nc3ccc(C)cc3C)C(C(=O)NC(C)COC)=C2N)c1 (stereo not drawn) | inconclusive: 39.8 µM [inhibitor, single point]
O=C(COc1ccccc1C(=O)N/N=C\c1ccc(O)c(O)c1)N/N=C/c1ccc(O)c(O)c1 | active: 3.14 µM
CCOC(=O)c1cnc2ccc(Cl)cc2c1NCCN(C)C | inconclusive: 31.6 µM [activator, single point]
COCCOC(=O)c1sc(=S)n(CCOC)c1N | inconclusive: 50.1 µM [inhibitor, single point]
CC(C)(C)c1cc(CCC(=O)NN)cc(C(C)(C)C)c1O | inconclusive: 14.1 µM [inhibitor, partial curve]
Cc1ccc(S(=O)(=O)Nc2cc(C(C(=O)OC(C)C)C(=O)C(F)(F)F)c(O)c3ccccc23)c(C)c1 (stereo not drawn) | inconclusive: 28.2 µM [inhibitor, partial curve]
Nc1c(N)c2ccccc2oc1=O | active: 7.08 µM
COc1ccc(NC(=O)c2ccc3c(c2)C(=O)N(CC2CCCO2)C3=O)cc1O (stereo not drawn) | inconclusive: 20 µM [inhibitor, partial curve]
